# Reference: the supplement of paper PMC8728848
# Some of the results follow.
# Tests used:
# Assay in all cases: glycan array binding signal (z-score within array); higher = stronger binding
# Conditions in all cases: glycan notation: IUPAC condensed, linker removed
# Gal6S(b1-3)GlcNAc6S = target: Gal6S(b1-3)GlcNAc6S
# How it was run: (§1)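 From the Consortium for Functional Glycomics database, 3228 arrays were curated, keeping only those whose protein sequence was available. Binding is given as a within-array Z-score averaged across arrays sharing a protein sequence and across linkers. Negative Z-scores can be read as non-binding.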
# Gal6S(b1-4)Glc = target: Gal6S(b1-4)Glc
# How it was run: as §1
# Gal6S(b1-4)Glc6S = target: Gal6S(b1-4)Glc6S
# How it was run: as §1
# Gal6S(b1-4)GlcNAc = target: Gal6S(b1-4)GlcNAc
# How it was run: as §1
# Gal6S(b1-4)GlcNAc6S = target: Gal6S(b1-4)GlcNAc6S
# How it was run: as §1
# GalNAc(a1-3)Gal = target: GalNAc(a1-3)Gal
# How it was run: as §1
# GalNAc(a1-3)GalNAc = target: GalNAc(a1-3)GalNAc
# How it was run: as §1
# [1] = target: GalNAc(a1-3)GalNAc(b1-3)Gal(a1-4)Gal(b1-4)Glc
# How it was run: as §1
# [2] = target: GalNAc(a1-3)GalNAc(b1-3)Gal(a1-4)Gal(b1-4)GlcNAc
# How it was run: as §1
# GalNAc(b1-3)Gal = target: GalNAc(b1-3)Gal
# How it was run: as §1
# [3] = target: GalNAc(b1-3)Gal(a1-4)Gal(b1-4)GlcNAc
# How it was run: as §1
# [4] = target: GalNAc(b1-3)Gal(a1-4)Gal(b1-4)GlcNAc(b1-3)Gal(b1-4)Glc
# How it was run: as §1
# [5] = target: GalNAc(b1-3)Gal(a1-6)Gal(b1-4)Glc
# How it was run: as §1
# GalNAc(b1-3)GalNAc = target: GalNAc(b1-3)GalNAc
# How it was run: as §1
# GalNAc(b1-4)Gal(b1-4)Glc = target: GalNAc(b1-4)Gal(b1-4)Glc
# How it was run: as §1
# GalNAc(b1-4)GlcNAc = target: GalNAc(b1-4)GlcNAc
# How it was run: as §1
# [6] = target: GalNAc(b1-4)GlcNAc(b1-2)Man(a1-3)[GalNAc(b1-4)GlcNAc(b1-2)Man(a1-6)]Man(b1-4)GlcNAc(b1-4)GlcNAc
# How it was run: as §1
# GalNAc(b1-4)GlcNAc6S = target: GalNAc(b1-4)GlcNAc6S
# How it was run: as §1
# GalNAc(b1-6)GalNAc = target: GalNAc(b1-6)GalNAc
# How it was run: as §1
# GalNAc3S(b1-4)GlcNAc = target: GalNAc3S(b1-4)GlcNAc
# How it was run: as §1
# GalNAc3S(b1-4)GlcNAc3S = target: GalNAc3S(b1-4)GlcNAc3S
# How it was run: as §1
# GalNAc4S6S(b1-4)GlcNAc = target: GalNAc4S6S(b1-4)GlcNAc
# How it was run: as §1
# GalNAc6S(b1-4)GlcNAc = target: GalNAc6S(b1-4)GlcNAc
# How it was run: as §1
# Glc(a1-4)Glc = target: Glc(a1-4)Glc
# How it was run: as §1
# [7] = target: Glc(a1-4)Glc(a1-4)Glc(a1-4)Glc
# How it was run: as §1
# Glc(a1-6)Glc(a1-6)Glc = target: Glc(a1-6)Glc(a1-6)Glc
# How it was run: as §1
# [8] = target: Glc(a1-6)Glc(a1-6)Glc(a1-6)Glc
# How it was run: as §1
# Glc(b1-4)Glc = target: Glc(b1-4)Glc
# How it was run: as §1
# Glc(b1-6)Glc = target: Glc(b1-6)Glc
# How it was run: as §1
# GlcA(b1-3)Gal = target: GlcA(b1-3)Gal
# How it was run: as §1
# GlcA(b1-3)GlcNAc = target: GlcA(b1-3)GlcNAc
# How it was run: as §1
# GlcA(b1-6)Gal = target: GlcA(b1-6)Gal
# How it was run: as §1
# [9] = target: GlcNAc(a1-3)Gal(b1-4)GlcNAc
# How it was run: as §1
# [10] = target: GlcNAc(a1-4)Gal(b1-3)GlcNAc
# How it was run: as §1
# [11] = target: GlcNAc(a1-4)Gal(b1-4)GalNAc
# How it was run: as §1
# [12] = target: GlcNAc(a1-4)Gal(b1-4)GlcNAc
# How it was run: as §1
# [13] = target: GlcNAc(a1-4)Gal(b1-4)GlcNAc(b1-3)Gal(b1-4)Glc
# How it was run: as §1
# [14] = target: GlcNAc(a1-4)Gal(b1-4)GlcNAc(b1-3)Gal(b1-4)GlcNAc
# How it was run: as §1
binder,measurement,setting,value
"Strep tagII-anxA1 (Homo sapiens), P04083 (protein) MAMVSEFLKQAWFIENEEQEYVQTVKSSKGGPGSAVSPYPTFNPSSDVAALHKAIMVKGVDEATIIDILTKRNNAQRQQIKAAYLQETGKPLDETLKKALTGHLEEVVLALLKTPAQFDADELRAAMKGLGTDEDTLIEILASRTNKEIRDINRVYREELKRDLAKDITSDTSGDFRNALLSLAKGDRSEDFGVNEDLADSDARALYEAGERRKGTDVNVFNTILTTRSYPQLRRVFQKYTKYSKHDMNKVLDLELKGDIEKCLTAIVKCATSKPAFFAEKLHQAMKGVGTRHKALIRIMVSRSEIDMNDIKAFYQKMYGISLCQAILDETKGDYEKILVALCGGN",glycan array binding signal (z-score),Gal6S(b1-3)GlcNAc6S,-0.025
same,glycan array binding signal (z-score),Gal6S(b1-4)Glc,-0.239
same,glycan array binding signal (z-score),Gal6S(b1-4)Glc6S,0.09
same,glycan array binding signal (z-score),Gal6S(b1-4)GlcNAc,-0.428
same,glycan array binding signal (z-score),Gal6S(b1-4)GlcNAc6S,0.918
same,glycan array binding signal (z-score),GalNAc(a1-3)Gal,0.67
same,glycan array binding signal (z-score),GalNAc(a1-3)GalNAc,-0.167
same,glycan array binding signal (z-score),[1],-0.765
same,glycan array binding signal (z-score),[2],-0.774
same,glycan array binding signal (z-score),GalNAc(b1-3)Gal,-0.664
same,glycan array binding signal (z-score),[3],-0.061
same,glycan array binding signal (z-score),[4],0.033
same,glycan array binding signal (z-score),[5],-0.75
same,glycan array binding signal (z-score),GalNAc(b1-3)GalNAc,-0.066
same,glycan array binding signal (z-score),GalNAc(b1-4)Gal(b1-4)Glc,1.79
same,glycan array binding signal (z-score),GalNAc(b1-4)GlcNAc,-0.147
same,glycan array binding signal (z-score),[6],-0.011
same,glycan array binding signal (z-score),GalNAc(b1-4)GlcNAc6S,-0.695
same,glycan array binding signal (z-score),GalNAc(b1-6)GalNAc,-0.568
same,glycan array binding signal (z-score),GalNAc3S(b1-4)GlcNAc,-0.706
same,glycan array binding signal (z-score),GalNAc3S(b1-4)GlcNAc3S,0.323
same,glycan array binding signal (z-score),GalNAc4S6S(b1-4)GlcNAc,-0.111
same,glycan array binding signal (z-score),GalNAc6S(b1-4)GlcNAc,-0.672
same,glycan array binding signal (z-score),Glc(a1-4)Glc,0.47
same,glycan array binding signal (z-score),[7],3.56
same,glycan array binding signal (z-score),Glc(a1-6)Glc(a1-6)Glc,-0.383
same,glycan array binding signal (z-score),[8],1.55
same,glycan array binding signal (z-score),Glc(b1-4)Glc,1.5
same,glycan array binding signal (z-score),Glc(b1-6)Glc,0.501
same,glycan array binding signal (z-score),GlcA(b1-3)Gal,-0.038
same,glycan array binding signal (z-score),GlcA(b1-3)GlcNAc,0.735
same,glycan array binding signal (z-score),GlcA(b1-6)Gal,-0.69
same,glycan array binding signal (z-score),[9],-0.688
same,glycan array binding signal (z-score),[10],-0.359
same,glycan array binding signal (z-score),[11],2.68
same,glycan array binding signal (z-score),[12],1.29
same,glycan array binding signal (z-score),[13],-0.026
same,glycan array binding signal (z-score),[14],0.602
